Results: PubChem BioAssay AID1768 (National Center for Advancing Translational Sciences (NCATS), 2009)
Among all 270,000 compounds or so, about 620 (0.23%) were called active. This list was built around the results that the source calls inconclusive (neither active nor inactive); the mix of calls is not that of the screen. Calls follow the shape of the dose curve; as a rule, active = well fitted inhibition curve with a large enough effect in the polarisation, with a control signal flat (not every such curve was filed as active); inconclusive = small, poorly fitted or top-dose-only effect, or effect the other way, or a change in a side signal; inactive = no such curve, though single readings can be large or run the other way; the % refers to the polarisation. Potencies of inconclusive entries are doubtful fits and often do not repeat. “Side channel” marks fits to a control or component signal instead of the main read-out.

Target: Menin (Homo sapiens) (UniProt O00255)
Chain of UniProt O00255 (O00255 whole entry, looked up): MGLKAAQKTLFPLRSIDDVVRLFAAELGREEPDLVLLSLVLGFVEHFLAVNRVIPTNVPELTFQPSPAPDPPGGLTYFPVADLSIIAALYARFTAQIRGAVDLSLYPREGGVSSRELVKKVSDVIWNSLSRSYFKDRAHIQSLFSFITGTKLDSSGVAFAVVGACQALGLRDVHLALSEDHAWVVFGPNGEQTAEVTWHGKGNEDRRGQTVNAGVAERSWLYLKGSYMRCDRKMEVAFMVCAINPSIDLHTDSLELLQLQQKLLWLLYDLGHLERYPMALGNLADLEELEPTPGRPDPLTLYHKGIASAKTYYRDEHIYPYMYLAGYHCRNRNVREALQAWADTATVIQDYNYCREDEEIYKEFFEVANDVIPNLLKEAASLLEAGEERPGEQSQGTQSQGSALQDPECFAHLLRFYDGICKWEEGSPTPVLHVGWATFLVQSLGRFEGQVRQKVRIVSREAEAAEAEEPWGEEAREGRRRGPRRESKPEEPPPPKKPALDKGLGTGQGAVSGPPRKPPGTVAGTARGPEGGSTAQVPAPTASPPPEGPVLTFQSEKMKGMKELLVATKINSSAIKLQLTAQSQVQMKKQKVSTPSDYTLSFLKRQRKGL
Assay: qHTS Assay for Inhibitors Targeting the Menin-MLL Interaction in MLL Related Leukemias: Competition With Texas Red Labeled MLL-derived Mutant Peptide
Conditions: fluorescence polarization; series mostly up to 61.6 µM
Potency is read from the fitted curve at half-maximal effect; tags tell the direction and shape of the fitted curve or compound fluorescence and quenching.

Structure (SMILES) | Potency
O=C(O)/C=C/c1cccc(NC(=O)Nc2ccc([N+](=O)[O-])cc2)c1 | inconclusive: 11.2 µM [quencher, partial curve, poor fit]
CC(/C=N/NC(=O)c1nnn(-c2nonc2N)c1C)=C\c1ccccc1 | inconclusive: 28.2 µM [fluorescent, side channel, partial curve]
C/C(=N\N1CCN(C2c3ccccc3-c3ccccc32)CC1)c1cccnc1 | inactive
COc1ccc(OCC(=O)Nc2ccccc2N2CCN(C)CC2)cc1 | inconclusive: 39.8 µM [inhibitor, single point]
CCC(C)Nc1nc(-c2ccccn2)nc2ccccc12 (stereo not drawn) | inconclusive: 14.1 µM [inhibitor, partial curve]
COc1ccc(N2C(=O)/C(=C\c3ccco3)N=C2SCC(N)=O)cc1Cl | inconclusive: 35.5 µM [quencher, side channel, single point]
O=C(Cn1ncc(N2CCCC2)c(Cl)c1=O)c1ccc(Cl)cc1 | inconclusive: 39.8 µM [inhibitor, single point]
COc1c(O)c(O)cc2c1oc1c3ccccc3oc(=O)c21 | inconclusive: 22.4 µM [quencher, side channel, partial curve]
N#Cc1c(-c2ccccc2)nc(SCC(=O)Nc2ccccc2F)[nH]c1=O | inconclusive: 39.8 µM [quencher, side channel, single point]
Cc1ccc(NC(=O)c2cc(Cl)nc3ccccc23)cc1 | inconclusive: 17.8 µM [quencher, side channel, partial curve]
C[n+]1c(/C=C/c2ccc(O)cc2)ccc2ccccc21 | inactive
O=[N+]([O-])c1cc(C(F)(F)F)ccc1NCCNC(=S)Nc1ccc(Cl)cc1 | inconclusive: 11.2 µM [quencher, side channel, partial curve]
Cc1cc(=O)oc2cc(NC(=O)Cc3ccccc3[N+](=O)[O-])ccc12 | inconclusive: 39.8 µM [inhibitor, single point]
CCCC(=O)NCc1ccc2c(c1)cc(C)n2C | inconclusive: 39.8 µM [inhibitor, single point]
COc1c(/C=N/Nc2ccc([N+](=O)[O-])cc2[N+](=O)[O-])c(C)nn1-c1ccccc1 | inconclusive: 17.8 µM [quencher, side channel, partial curve]
CCOC(=O)c1c(NC(=O)CN(CC)CC)sc2c1CCN(C(=O)OCC)C2 | inactive
O=C(CCn1c(=S)[nH]c2ccccc2c1=O)NCCc1ccccc1 | inconclusive: 35.5 µM [fluorescent, side channel, single point]
COc1ccccc1NC(=O)CCN1C(=O)C2CC=C(Cl)CC2C1=O (stereo not drawn) | inconclusive: 4.47 µM [inhibitor, full curve]
Cc1noc(C)c1-c1ccc2ncnc(NCc3ccco3)c2c1 | inactive

Structure (SMILES) | Potency
CCOC(=O)c1sc(N/N=C/c2ccccc2)nc1C | inconclusive: 20 µM [quencher, side channel, partial curve]
Cn1c(=O)c(-c2ccc(F)cc2)nc2cnc(Oc3ccccc3)nc21 | inconclusive: 35.5 µM [inhibitor, single point]
O=c1cc(O)c2sc(Nc3cccc(C(F)(F)F)c3)nc2[nH]1 | inconclusive: 15.8 µM [quencher, side channel, partial curve]
CCOC(=O)C1=C(CNC2CCCCC2)NC(=O)NC1c1cc(C)ccc1C (stereo not drawn) | inconclusive: 1.26 µM [fluorescent, side channel, full curve, poor fit]
CCCC(C(=O)OCCN(CC)CC)(c1ccccc1)c1ccccc1 | inconclusive: 12.6 µM [fluorescent, side channel, partial curve]
O=C(Cn1c(=O)oc2cc(S(=O)(=O)N3CCCC3)ccc21)NC1CCCc2ccccc21 (stereo not drawn) | active: 31.6 µM
O=C(Nc1ccc(S(=O)(=O)Nc2nccs2)cc1)c1cccc(N2C(=O)c3ccccc3C2=O)c1 | inconclusive: 3.16 µM [quencher, side channel, single point]
O=C(Nc1cc(Sc2nc3ccccc3s2)cc([N+](=O)[O-])c1)c1ccccc1F | inconclusive: 10 µM [quencher, side channel, partial curve]
COc1ccccc1C1NC=C([N+](=O)[O-])C=C1[N+](=O)[O-] (stereo not drawn) | inconclusive: 35.5 µM [quencher, side channel, single point]
COc1cc(C(=S)NCc2ccccc2)cc(Br)c1O | inconclusive: 35.5 µM [quencher, side channel, single point]
COC(=O)c1ccc(C2C(Oc3ccccc3)C(=O)N2CCc2ccc(F)cc2)cc1 (stereo not drawn) | inconclusive: 8.91 µM [inhibitor, single point]
COc1ccc(-n2c(SCC(=O)Nc3nccs3)nnc2-c2ccccc2)cc1 | inconclusive: 12.6 µM [fluorescent, side channel, partial curve]
CCOC(=O)c1c(C)[nH]c(C(=O)OC/C(O)=C(\C#N)c2nc3ccccc3[nH]2)c1C | inconclusive: 28.2 µM [quencher, side channel, partial curve]
CC12CCC(C(=O)N(CSC(=S)N/N=C\c3ccccc3Cl)C1=O)C2(C)C (stereo not drawn) | inconclusive: 5.62 µM [quencher, side channel, full curve]
CN1CCN(CC(O)Cn2c3ccccc3c3ccccc32)CC1 (stereo not drawn) | inconclusive: 28.2 µM [fluorescent, side channel, single point]
CCOc1ccc(S(=O)(=O)N2CCCCC2)c(C)c1C | inconclusive: 11.2 µM [fluorescent, side channel, partial curve]
O=C(CSCc1ccccc1F)NCc1ccc(F)cc1 | inactive
CC(C)CNS(=O)(=O)c1ccc(OCC(=O)Nc2ccc3c(c2)OCCO3)cc1 | inconclusive: 1.78 µM [inhibitor, partial curve]
O=C(Nc1cc([N+](=O)[O-])ccc1F)c1ccc2ccccc2c1 | inconclusive: 10 µM [quencher, side channel, partial curve]
